# The whole screen tested about 390,000 compounds, of which about 17,000 (4.4%) were called active. The shares of active, inactive and inconclusive entries below differ from those in the screen. The call rests on the fitted dose curve; in most records, active means well fitted inhibition curve with a large enough effect; inconclusive means small, poorly fitted or top-dose-only effect; inactive means no such curve, though single readings can be large or run the other way. A potency beside an inconclusive call is a rough fit, not a confirmed value.
# Biological target: Lysine-specific demethylase 4A (Homo sapiens) (UniProt O75164)
# Chain of UniProt O75164 (O75164 whole entry, looked up, the tested form may be a part): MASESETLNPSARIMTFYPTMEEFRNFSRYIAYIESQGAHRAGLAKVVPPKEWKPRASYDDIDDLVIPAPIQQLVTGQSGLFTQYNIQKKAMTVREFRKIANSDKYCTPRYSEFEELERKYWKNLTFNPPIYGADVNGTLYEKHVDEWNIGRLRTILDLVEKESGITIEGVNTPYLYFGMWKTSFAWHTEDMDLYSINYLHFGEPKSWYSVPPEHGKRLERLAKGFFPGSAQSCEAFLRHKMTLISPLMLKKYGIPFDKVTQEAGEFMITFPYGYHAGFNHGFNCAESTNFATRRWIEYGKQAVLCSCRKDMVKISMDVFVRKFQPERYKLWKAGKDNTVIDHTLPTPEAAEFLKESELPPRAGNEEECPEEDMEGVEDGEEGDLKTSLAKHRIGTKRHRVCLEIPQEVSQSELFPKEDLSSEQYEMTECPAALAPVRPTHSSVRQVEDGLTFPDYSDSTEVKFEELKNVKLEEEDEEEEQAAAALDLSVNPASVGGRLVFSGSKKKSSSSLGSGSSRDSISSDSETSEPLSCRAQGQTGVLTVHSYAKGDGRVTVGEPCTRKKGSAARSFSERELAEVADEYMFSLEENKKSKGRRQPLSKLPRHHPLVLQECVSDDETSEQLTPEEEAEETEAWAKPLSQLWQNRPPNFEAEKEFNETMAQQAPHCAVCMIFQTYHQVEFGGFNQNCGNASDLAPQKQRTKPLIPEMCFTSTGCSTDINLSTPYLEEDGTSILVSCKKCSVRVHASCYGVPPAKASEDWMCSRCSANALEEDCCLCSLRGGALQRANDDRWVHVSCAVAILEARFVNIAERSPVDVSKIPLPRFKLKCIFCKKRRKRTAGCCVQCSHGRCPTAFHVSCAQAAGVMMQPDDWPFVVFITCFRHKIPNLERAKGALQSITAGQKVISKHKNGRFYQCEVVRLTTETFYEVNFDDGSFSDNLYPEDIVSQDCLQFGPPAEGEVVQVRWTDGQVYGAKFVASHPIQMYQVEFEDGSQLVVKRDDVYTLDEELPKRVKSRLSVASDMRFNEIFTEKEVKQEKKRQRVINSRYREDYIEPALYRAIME
# Assay: qHTS Assay for Inhibitors of JMJD2A-Tudor Domain; further: nearly all actives have a fitted effect of over 50% in size
# Details: AlphaScreen JMJD2A-Tudor / H3K4me3 peptide binding; series mostly up to 114 µM
# Potency means the concentration at half of the fitted maximal effect; tags describe the fitted curve by direction and shape.
row,SMILES,Potency
1,COc1ccc(C(CC(=O)Nc2ccc(C)cn2)N2Cc3ccccc3C2=O)cc1 (configuration not stated),"inconclusive: 4.47 µM [inhibitor, single point]"
2,Cc1ccc(NC2c3ncccc3C(=O)N2Cc2cccs2)cc1C (configuration not stated),"inconclusive: 56.2 µM [inhibitor, partial curve]"
3,CC1CCCN(S(=O)(=O)c2ccc(NC(=O)CN3CCN(C)CC3)cc2)C1 (configuration not stated),"inconclusive: 56.2 µM [inhibitor, partial curve]"
4,Nc1nc(N)nc(-c2cc(Cl)ccc2Cl)n1,"inconclusive: 89.1 µM [inhibitor, single point]"
5,O=C(NNc1nc(-c2ccccc2)c2cc(Br)ccc2n1)c1ccc(S(=O)(=O)N2CCOCC2)cc1,"inconclusive: 14.1 µM [inhibitor, partial curve]"
6,COCCCNS(=O)(=O)c1ccc2c(c1)CCN2C(C)=O,"inconclusive: 56.2 µM [inhibitor, partial curve]"
7,COc1cccc(-c2nnc(-c3ccco3)o2)c1,active: 50.1 µM
8,CCN(c1ccccc1)S(=O)(=O)c1ccc(C(=O)NC2CCN(Cc3ccccc3)CC2)cc1,inactive
9,CCn1c(-c2ccc(C(C)(C)C)cc2)n[nH]c1=S,active: 44.7 µM
10,Cc1ccc(NC(c2nnc(-c3ccccc3)o2)c2ccccc2F)c([N+](=O)[O-])c1 (configuration not stated),"inconclusive: 12.6 µM [inhibitor, full curve]"
11,O=[N+]([O-])c1ccc(N2CCN(c3ccc(O)cc3)CC2)c(Cl)c1,active: 44.7 µM
12,Cc1cc2c(s1)c1cnn(Cc3cc(F)c(F)c(F)c3F)c(=O)c1n2C,inactive
13,COc1ccc(NC2CC(=O)N(c3cccc([N+](=O)[O-])c3)C2=O)cc1 (configuration not stated),inactive
14,COc1ccc(-c2cn3c(C)c(C(=O)NCCN4CCOCC4)sc3n2)cc1,"inconclusive: 56.2 µM [inhibitor, partial curve]"
15,COc1ccc(-c2cc(C(F)(F)F)n3nc(C(=O)Nc4cccc(C(F)(F)F)c4)c(Br)c3n2)cc1,inactive
16,COc1ccc(OCCC(=O)OCC(=O)NCc2ccco2)cc1,"inconclusive: 3.55 µM [inhibitor, single point]"
17,COc1cc(/C=C2\SC(=Nc3ccc(Cl)c(C(=O)O)c3)NC2=O)c(Br)c(Br)c1O,active: 79.4 µM
18,O=[N+]([O-])c1ccc(N/N=C/c2sc(N3CCOCC3)nc2-c2ccccc2)c(S(=O)(=O)Nc2ccc(Cl)cc2)c1,"inconclusive: 31.6 µM [inhibitor, single point]"
19,COc1ccc(NC(=S)N(CCO)Cc2cc3c(C)cc(C)cc3[nH]c2=O)cc1,inactive
20,CN(C)c1ccc(/C=N/Nc2ccc(-n3ccnc3)nn2)cc1,"inconclusive: 44.7 µM [inhibitor, partial curve, poor fit]"
21,COC(=O)c1cc2c(ccn2-c2ccc(F)cc2)n1Cc1ccc(C#N)cc1,"inconclusive: 20 µM [inhibitor, full curve, poor fit]"
22,CCOC(=O)c1c(C)c(C(=O)Nc2ccc(N(C)C)cc2)c(C)n1CC,"inconclusive: 22.4 µM [inhibitor, full curve]"
23,O=C(NCc1cccnc1)c1cccc2c1C(=O)N(Cc1cccnc1)C2,"inconclusive: 89.1 µM [inhibitor, single point]"

row,SMILES,Potency
1,CC(=O)c1cccc(NC(=O)c2ccc(C(=O)Nc3cccc(C(C)=O)c3)nc2)c1,active: 20 µM
2,O=C(CN1CCCCCCC1)N/N=C/c1ccc(F)c(F)c1,active: 3.16 µM
3,c1cn2c(Nc3ccc4c(c3)OCCO4)c(-c3ccc(N4CCOCC4)cc3)nc2cn1,"inconclusive: 50.1 µM [inhibitor, partial curve]"
4,CCOc1ccccc1OCC(=O)NCc1ccco1,"inconclusive: 70.8 µM [inhibitor, single point]"
5,CCC(c1nnnn1CCc1ccccc1)N(Cc1ccco1)Cc1cc2c(C)ccc(C)c2[nH]c1=O (configuration not stated),"inconclusive: 79.4 µM [inhibitor, single point]"
6,CC(C)CC(c1nnnn1C(C)(C)C)N1CCN(Cc2ccccc2)CC1 (configuration not stated),"inconclusive: 89.1 µM [inhibitor, single point]"
7,COc1ccc(OC)c(C2=NS(=O)(=O)N(C)C(C(=O)NCc3ccco3)=C2)c1,"inconclusive: 79.4 µM [inhibitor, partial curve]"
8,O=C(O)C/C(=C\c1cccc(NC(=O)c2ccccc2Cl)c1)c1nc2ccccc2s1,active: 35.5 µM
9,Nc1nc2c(c(=O)[nH]1)C(c1cccc3ccccc13)C1=C(N2)c2ccccc2C1=O (configuration not stated),"inconclusive: 56.2 µM [inhibitor, partial curve]"
10,CCN(Cc1ccc2c(c1)OCCO2)C(=O)CN1C(=O)NC2(CCCCC2)C1=O,inactive
11,CCn1cc(Cl)c(C(=O)Nc2ccccc2C(N)=O)n1,inactive
12,Cc1c(NC2=C(Cl)C(=O)N(c3ccccc3)C2=O)c(=O)n(-c2ccccc2)n1C,"inconclusive: 15.8 µM [inhibitor, full curve, poor fit]"
13,CC1CCC(NC(=O)CCS(=O)(=O)c2ccc3c(c2)NC(=O)CO3)CC1 (configuration not stated),"inconclusive: 14.1 µM [inhibitor, partial curve, poor fit]"
14,Cc1cccc(C(=O)Nc2onc(C)c2C#N)c1,active: 89.1 µM
15,CCOc1ccc(N2C(=O)CC(/C=C3/N(C)c4ccccc4C3(C)C)C2=O)cc1 (configuration not stated),"inconclusive: 50.1 µM [inhibitor, partial curve]"
16,COCc1cc(C)nc(OCC(=O)N/N=C/c2ccc(-c3cc([N+](=O)[O-])ccc3C)o2)c1C#N,inactive
17,Nc1ccc(Br)c2c1C(=O)c1ccccc1C2=O,"inconclusive: 10 µM [inhibitor, partial curve]"
18,Cc1c(N2C(=O)/C(=C\c3ccc(N(C)C)cc3)N(C)C2=S)c(=O)n(-c2ccccc2)n1C,"inconclusive: 50.1 µM [inhibitor, single point]"
19,O=C(Nc1ccc2nc(-c3ccco3)c(-c3ccco3)nc2c1)N1CCCCCC1,active: 12.6 µM
20,Cc1nnc(-c2ccc(N3CCCCCC3)c([N+](=O)[O-])c2)o1,"inconclusive: 50.1 µM [inhibitor, partial curve]"
21,COC(=O)c1sccc1NC(=O)Nc1ccc(C)cc1,inactive
22,Cn1c(C23CC4CC(CC(C4)C2)C3)n[nH]c1=S,active: 5.62 µM
23,CCc1cc2c(cc3c(=O)n(CC(=O)N4CCN(c5cc(Cl)ccc5C)CC4)nc(CC)n32)s1,inactive

row,SMILES,Potency
1,Cc1c(NC(=O)C(C)OC(=O)/C=C/c2ccco2)c(=O)n(-c2ccccc2)n1C (configuration not stated),active: 20 µM
2,CCN1CCN(c2cc(C)c3cc(NC(=S)N(CC)CC)ccc3n2)CC1,"inconclusive: 11.2 µM [inhibitor, partial curve]"
3,O=C(Nc1ccc(N2CCOCC2)cc1)C1CCCN(S(=O)(=O)c2ccccc2)C1 (configuration not stated),inactive
4,COc1ccccc1NCC(=O)c1ccc(C)c(C)c1,"inconclusive: 56.2 µM [inhibitor, partial curve]"
5,C#CCOCCOCCOCCNc1nc(N2CCN(C(=O)[C@H]([C@@H](C)CC)n3cc([C@@H](N)CC(C)C)nn3)CC2)nc(N2CCN(C(=O)[C@H]([C@@H](C)CC)n3cc([C@@H](N)CC(C)C)nn3)CC2)n1,"inconclusive: 56.2 µM [inhibitor, partial curve]"
6,O=C(N/N=C/c1ccc(O)c(O)c1)c1cccc(S(=O)(=O)N2CCCC2)c1,active: 7.94 µM
7,COc1ccc(CCNc2ccncn2)cc1OC,inactive
8,Cn1c(C(=O)N2CCC(C(=O)N3CCN(c4ccccc4)CC3)CC2)cc2sccc21,"inconclusive: 15.8 µM [inhibitor, partial curve, poor fit]"
9,CN(C)S(=O)(=O)c1cc(NC(=O)CN2CCOCC2)ccc1Cl,active: 14.1 µM
10,Cc1nnc(N2CCN(c3cccc(C(F)(F)F)c3)CC2)c2c1nnn2Cc1ccccc1,inactive
11,Cc1ccc(CNC(=O)c2c[nH]n3c(=O)c(Cc4ccc(F)cc4Cl)c(C)nc23)cc1,"inconclusive: 79.4 µM [inhibitor, partial curve]"
12,COC(=O)CNC(=O)CCC(=O)N1CCN(C(c2ccccc2)c2ccccc2)CC1,inactive
13,O=C(CNC(=O)c1ccc2c(c1)OCO2)N/N=C/c1cc(Br)ccc1O,"inconclusive: 63.1 µM [inhibitor, partial curve, poor fit]"
14,COc1ccc(N2Cc3cccc(C(=O)Nc4cccc(F)c4)c3C2=O)cc1,active: 20 µM
15,Cc1[nH]c2ccccc2c1C(c1ccncc1)N1CCN(c2ccccc2F)CC1 (configuration not stated),"inconclusive: 22.4 µM [inhibitor, partial curve]"
16,CC(=O)c1ccc(-c2ccc(C(=O)N3CCN(c4ccc(F)cc4)CC3)o2)cc1,"inconclusive: 44.7 µM [inhibitor, partial curve]"
17,C#CCOCCOCCOCCNc1nc(N2CCN(C(=O)[C@H]([C@@H](C)CC)n3cc([C@@H](N)CC(C)C)nn3)CC2)nc(N2CCN(C(=O)[C@H](Cc3ccc(O)cc3)n3cc([C@@H](N)CC(C)C)nn3)CC2)n1,"inconclusive: 56.2 µM [inhibitor, partial curve]"
18,CC1CCC(NC(=O)CN2C(=O)NC3(CCCCCC3)C2=O)CC1 (configuration not stated),inactive
19,CCN1/C(=N\N)c2cccc3cccc1c23,active: 7.94 µM
20,O=C(Nc1nc(-c2ccco2)c(-c2ccco2)s1)C1CC(=O)N(c2ccc3c(c2)OCCO3)C1 (configuration not stated),active: 25.1 µM
21,COCCN(C(=O)c1cc(-c2ccco2)nc2ccccc12)c1c(N)n(Cc2ccccc2)c(=O)[nH]c1=O,"inconclusive: 50.1 µM [inhibitor, partial curve]"
